In article PMC4336329 (PLoS ONE, 2015):
The whole screen tested about 310,000 compounds, of which about 2,200 (0.71%) showed an effect of 50% or more. The effect is printed as a negative number. The list shows a part of the results.

Each molecule was assayed against human ether-à-go-go-related gene (hERG) potassium channel (human, UniProt Q12809) (assay: primary screen, population patch clamp on CHO cells stably expressing hERG).
Chain of human ether-à-go-go-related gene (hERG) potassium channel (Q12809 whole entry, looked up): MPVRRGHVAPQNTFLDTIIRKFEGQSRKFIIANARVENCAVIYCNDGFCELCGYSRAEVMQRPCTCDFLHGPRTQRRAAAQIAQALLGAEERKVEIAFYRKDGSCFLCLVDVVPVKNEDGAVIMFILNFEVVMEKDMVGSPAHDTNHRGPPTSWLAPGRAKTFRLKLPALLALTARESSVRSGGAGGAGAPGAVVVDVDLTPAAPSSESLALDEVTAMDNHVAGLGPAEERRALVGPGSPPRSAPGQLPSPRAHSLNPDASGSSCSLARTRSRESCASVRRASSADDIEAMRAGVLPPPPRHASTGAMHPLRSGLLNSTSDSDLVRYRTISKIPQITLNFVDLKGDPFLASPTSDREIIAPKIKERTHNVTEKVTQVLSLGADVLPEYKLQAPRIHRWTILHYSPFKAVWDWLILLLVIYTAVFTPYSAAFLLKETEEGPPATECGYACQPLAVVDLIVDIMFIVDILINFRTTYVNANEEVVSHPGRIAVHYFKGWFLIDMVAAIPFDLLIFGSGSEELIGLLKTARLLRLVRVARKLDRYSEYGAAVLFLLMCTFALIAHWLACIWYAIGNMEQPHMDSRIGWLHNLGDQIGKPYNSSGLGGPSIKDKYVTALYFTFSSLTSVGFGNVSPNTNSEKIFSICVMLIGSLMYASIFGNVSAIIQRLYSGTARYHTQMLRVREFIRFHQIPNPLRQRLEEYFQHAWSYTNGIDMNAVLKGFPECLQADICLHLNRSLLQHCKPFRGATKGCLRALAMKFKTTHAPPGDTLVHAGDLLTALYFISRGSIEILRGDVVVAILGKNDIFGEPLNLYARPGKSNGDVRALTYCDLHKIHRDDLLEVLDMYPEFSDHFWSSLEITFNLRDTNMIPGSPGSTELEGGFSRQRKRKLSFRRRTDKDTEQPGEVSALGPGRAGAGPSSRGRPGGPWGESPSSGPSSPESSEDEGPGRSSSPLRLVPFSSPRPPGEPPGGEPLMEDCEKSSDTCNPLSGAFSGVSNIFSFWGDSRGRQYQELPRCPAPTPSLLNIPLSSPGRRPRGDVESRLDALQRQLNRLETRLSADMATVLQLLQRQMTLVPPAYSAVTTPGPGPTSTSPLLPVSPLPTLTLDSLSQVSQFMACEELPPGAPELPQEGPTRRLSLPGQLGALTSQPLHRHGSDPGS

| SMILES | hERG current change (%, negative = inhibition) at 1uM [%] |
| --- | --- |
| COC(=O)c1cc(NS(=O)(=O)c2ccc3c(c2)c(=O)n(C)c(=O)n3C)cc(C(=O)OC)c1 | 10.6 |
| Cc1nn(CC(=O)Nc2ccc(N3CCOCC3)cc2)c(C)c1Cl | 19.7 |
| CCOC(=O)c1c(NC(=O)CSc2n[nH]c(N)n2)sc(CC)c1C | 6.13 |
| COc1cccc(N2CCN(C(=O)CCCCCNc3nc(=S)[nH]c4ccccc34)CC2)c1 | 5.35 |
| CC(=O)c1c(C)[nH]c(C(=O)NCCc2cccc(C)c2)c1C | 6.72 |
| CN(C)CC(C)(C)CN=Cc1c(O)[nH]c2ccccc12 | 0.641 |
| CC(C)c1ccc(N(CC(=O)NCC2CCCO2)C(=O)CCC(=O)Nc2nccs2)cc1 (stereo not shown) | 13.1 |
| CCOC(=O)/C=C/[C@H]1CCc2cccc(Cl)c2O1 | 14 |
| Cc1cc2sc3nc(=O)n(-c4ccccc4)c(=O)n3c2cc1C | 9.81 |
| CCOC(=O)CSc1nnc(CNC(=O)c2ccc(S(=O)(=O)N(C)C)cc2)n1C | 5.4 |
| Cl.N=c1sccn1CC(=O)Nc1ccccc1-c1ccccc1 | 5.08 |
| CCCNC(=O)c1ccc(N(Cc2ccccc2)S(C)(=O)=O)cc1 | -0.451 |
| Cc1nn(-c2ccccc2)c(N)c1C1(O)C(=O)Nc2ccc([N+](=O)[O-])cc21 (stereo not shown) | 1.84 |
| N#C/C(=C\c1cccc(O)c1)c1nc2ccccc2o1 | 14.5 |
| Cc1cc(C)n(-c2nc3c(c(=O)[nH]c(=O)n3C)n2CC(O)COc2ccccc2C)n1 (stereo not shown) | -13.3 |
| Cc1cccc(CCNS(=O)(=O)c2cnc[nH]2)c1 | -1.25 |
| Cc1cc2nc(C3CCCN(C(=S)Nc4ccccc4C)C3)[nH]c2cc1C (stereo not shown) | 8.84 |
| CC(C)Oc1ccc(C2CC(=O)N(Nc3ccc([N+](=O)[O-])cc3[N+](=O)[O-])C2=O)cc1 (stereo not shown) | 1.18 |
| O=C1Nc2ccccc2C1c1ncc(C(F)(F)F)cc1Cl (stereo not shown) | 4.56 |
| CC(=O)Nc1ccc(OCC(=O)NCCc2ccccc2)cc1 | 7.94 |

| SMILES | hERG current change (%, negative = inhibition) at 1uM [%] |
| --- | --- |
| C/C=C/c1ccc(OCCCNC2CCCC2)c(OC)c1.O=C(O)C(=O)O | -22.2 |
| Nn1c(SCC(=O)N2CCN(S(=O)(=O)c3ccccc3)CC2)nnc1-c1cccs1 | 8.17 |
| CCc1cccc(C)c1NC(=S)N(CCCN1CCN(C)CC1)Cc1cccs1 | 9.35 |
| Cl.N=c1sccn1CC(=O)NCCc1ccc(Cl)cc1Cl | -7.67 |
| CC(C)Sc1n[nH]c(=O)n1-c1cccc(C(F)(F)F)c1 | 10.4 |
| CCN(CC)C(=O)C1CC(c2ccc(OC)cc2)=NO1 (stereo not shown) | 13.9 |
| CCOC(=O)C1=C(COC(=O)CNC(=O)c2ccc(Cl)cc2Cl)NC(=O)NC1C (stereo not shown) | 11.6 |
| Cc1cc(NCc2cccnc2)nc(N)n1 | 6.21 |
| C[C@]12CCC(=O)CC1CCC1C2CC[C@]2(C)C(OC(=O)CCC(=O)O)CCC12 (stereo partly shown) | 9.84 |
| CC(NS(=O)(=O)c1ccc([N+](=O)[O-])cc1)C(=O)NN (stereo not shown) | 13.7 |
| Cc1nonc1C(=O)N/N=C/c1ccc(O)c(O)c1 | 8.03 |
| COC(=O)Nc1nnc(-c2ccco2)s1 | 8.46 |
| Cc1ccc(NC(=O)CSc2nc3ncc(Br)cc3[nH]2)cc1C | 15.1 |
| Cc1cc(NC(=O)CCC(=O)N(c2ccccc2C)C(C(=O)NC2CCCC2)c2ccccc2)no1 (stereo not shown) | 20.7 |
| CCCc1[nH]nc2c1C1(C(=O)N(C(C)C)c3ccccc31)C(C#N)=C(N)O2 (stereo not shown) | 10.6 |
| CCCOC(=O)c1ccc(NS(=O)(=O)c2cccs2)cc1 | 8.05 |
| CCn1cc(/C=C(/C#N)S(=O)(=O)c2ccccc2)cn1 | 11.6 |
| CCn1c2ccccc2c2cc(CN3CCN(C(=O)c4ccco4)CC3)ccc21 | 15.9 |
| Nc1cccnc1Oc1ccc(F)cc1F | 12.8 |
| C=CCn1c(=NC(=O)CC)n(C)c2ccccc21.Cl | 2.21 |

| SMILES | hERG current change (%, negative = inhibition) at 1uM [%] |
| --- | --- |
| O=C(c1cn(-c2ccccc2)nc1-c1cccnc1)N1CCN(S(=O)(=O)c2ccccc2F)CC1 | -23.8 |
| Cc1cc(C)cc(NC(=O)C2CCN(c3nccs3)CC2)c1 | 6.42 |
| O=C(CSc1nnc2ccccn12)NNC(=O)c1ccc(F)cc1 | 16.3 |
| CC(=O)NCc1ccc(S(=O)(=O)NC(C(=O)O)C(C)C)cc1 (stereo not shown) | 8.52 |
| CC(=O)N1CCN(CC(=O)Nc2cc(F)ccc2C)CC1 | 3.98 |
| Cc1cc(=O)oc2cc(OCC(=O)N3CCN(c4ccc(F)cc4)CC3)ccc12 | -2.46 |
| CSc1nc2nc3c(cc2c(=O)n1-c1ccccc1)COC(C)(C)C3 | 8.2 |
| CCOC(=O)N1CCN(C(=O)C(=O)Nc2sc3c(c2C(N)=O)CC(C)(C)OC3)CC1 | 19.2 |
| Cc1ccnc(NS(=O)(=O)c2cccc([N+](=O)[O-])c2)c1 | 10.8 |
| COc1ccccc1NC(=O)Cc1noc(CSc2n[nH]c(N)n2)n1 | 19.5 |
| Cc1ccc(C(=O)N2N=C(c3ccccc3O)CC2c2ccccc2)cc1 (stereo not shown) | 7.78 |
| Cc1ccc(S(=O)(=O)CCC(=O)OCC(=O)NC2CCS(=O)(=O)C2)cc1 (stereo not shown) | 8.32 |
| CCOC(=O)n1c(=O)oc2ccccc21 | 6.68 |
| CC(C)CN(CC(C)C)C(=S)Nc1ccc(Cl)cc1 | 6.61 |
| O=C1CCCN2N=C(SCC(=O)Nc3cccc(Cl)c3)SC2=N1 | 8.46 |
| Cc1ccc(S(=O)(=O)Nc2c(NC3CCCCC3)c3ccccc3oc2=O)cc1 | 11.6 |
| Cc1cc(Cl)ccc1OC(C)C(=O)O (stereo not shown) | 10.5 |
| CN(C)c1nc(SCCOC(=O)COc2ccc(Cl)cc2Cl)nc(N(C)C)n1 | -6.1 |
